The results in this text go back to patent US10925971B2, “Methods of treating PRLR positive breast cancer” (Regeneron Pharmaceuticals, Inc., priority 2016, dated 2021).

In test [1] the test system is Macaca fascicularis PRLR (mfPRLR.mmh; SEQ ID NO:403). Kind of test: Surface plasmon resonance (Biacore T200), antibody-capture format. The class given is binding. Conditions: analyte mfPRLR.mmh. On the procedure: (§1) Antibodies, expressed as human IgG1 Fc (i.e., “H1H” designations), were captured onto an anti-human Fc sensor surface (mAb-capture format), and soluble monomeric (hPRLR.mmh; SEQ ID NO:401, or Macaca fascicularis (mf) PRLR.mmh; SEQ ID NO:403) or dimeric (hPRLR.mFc; SEQ ID NO:402) PRLR protein was injected over the sensor surface. Measurements were conducted on a T200 Biacore instrument. Kinetic association (ka) and dissociation (kd) rate constants were determined by processing and fitting the data to a 1:1 binding model using Scrubber 2.0 curve fitting software.
For orientation: Surface plasmon resonance follows binding to a sensor surface in real time, without labels.

Test [2] has as its target T1, dimeric human PRLR (hPRLR.mFc; SEQ ID NO:402) (Homo sapiens, UniProt P16471).
T1 construct: dimeric (hPRLR.mFc)
Described as above. The class given is binding. Conditions: analyte hPRLR.mFc. On the procedure: as §1

Test [3] has as its target T2, monomeric human PRLR (hPRLR.mmh; SEQ ID NO:401) (Homo sapiens, UniProt P16471).
T2 construct: soluble monomeric (hPRLR.mmh); mmh (myc-myc-hexahistidine) (C)
Described as above. The class given is binding. Conditions: analyte hPRLR.mmh. On the procedure: as §1

Another test has as its system HEK293 parental cells. The test is described as follows: FACS cell surface binding. Details: species or system human. On the procedure:
(§2) The ability of anti-PRLR antibodies to selectively bind PRLR expressing cell lines was next determined. Human, monkey Macaca fascicularis, and mouse PRLR constructs with an HA tag were stably introduced into HEK293 cells via Lipofectamine 2000-mediated transfection methodology. Transfectants (HEK293/hPRLR, HEK293/mfPRLR and HEK293/mPRLR) were selected for at least 2 weeks in complete growth media plus G418.
Cell surface expression of PRLR on 293/hPRLR cells was assessed via FACS analysis. Briefly, 1×10^5 cells were incubated with 10 μg/ml of Control antibody I, or an isotype control for 30 min on ice in antibody dilution buffer. Following two washes with antibody dilution buffer, cells were incubated with 10 μg/ml of PE conjugated anti-human secondary antibodies for 30 min on ice. Following two additional washes, samples were run on a Hypercyt® cytometer and analyzed in ForeCyt™ (IntelliCyt, Albuquerque, N. Mex.). The mean fluorescence intensities (MFI) were expressed as fold change above isotype control levels (background). FACS binding confirmed that Control I selectively bound to 293/hPRLR expressing cells with MFIs that were 30 fold above background (isotype ctrl) levels and less than 2 fold binding on parental cells. […]

Test [4] has as its target T3, human PRLR on HEK293/hPRLR cells (Homo sapiens, UniProt P16471).
T3 construct: HA; expressed in transfected cells; host or cells: HEK293
T3 sequence (P16471 25-622): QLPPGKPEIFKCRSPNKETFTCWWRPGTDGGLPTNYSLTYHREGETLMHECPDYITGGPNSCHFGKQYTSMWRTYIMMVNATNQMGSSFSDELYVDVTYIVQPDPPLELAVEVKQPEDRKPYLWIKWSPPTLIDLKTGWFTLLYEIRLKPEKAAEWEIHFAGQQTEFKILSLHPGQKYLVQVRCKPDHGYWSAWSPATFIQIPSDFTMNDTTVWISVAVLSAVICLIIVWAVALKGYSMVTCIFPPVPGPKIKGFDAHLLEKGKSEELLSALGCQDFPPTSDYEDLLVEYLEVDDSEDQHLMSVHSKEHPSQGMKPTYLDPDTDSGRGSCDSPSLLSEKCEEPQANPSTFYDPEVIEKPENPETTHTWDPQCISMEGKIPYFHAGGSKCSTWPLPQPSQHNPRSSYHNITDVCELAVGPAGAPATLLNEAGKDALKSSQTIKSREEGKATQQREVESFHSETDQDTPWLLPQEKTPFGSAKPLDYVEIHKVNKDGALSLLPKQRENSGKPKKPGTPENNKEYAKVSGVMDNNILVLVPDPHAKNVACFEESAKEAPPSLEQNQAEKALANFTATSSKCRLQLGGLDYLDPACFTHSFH
Kind of test: FACS cell surface binding. The protocol:
as §2
(§3) Cell surface expression of PRLR on 293/hPRLR cells was assessed via FACS analysis. Briefly, 1×10^5 cells were incubated with 10 μg/ml of Control antibody I, or an isotype control for 30 min on ice in antibody dilution buffer. Following two washes with antibody dilution buffer, cells were incubated with 10 μg/ml of PE conjugated anti-human secondary antibodies for 30 min on ice. Following two additional washes, samples were run on a Hypercyt® cytometer and analyzed in ForeCyt™ (IntelliCyt, Albuquerque, N. Mex.). The mean fluorescence intensities (MFI) were expressed as fold change above isotype control levels (background). FACS binding confirmed that Control I selectively bound to 293/hPRLR expressing cells with MFIs that were 30 fold above background (isotype ctrl) levels and less than 2 fold binding on parental cells.
(§4) Next, the anti-PRLR antibodies were tested via FACS for selective binding to the engineered overexpressing PRLR HEK293 cell lines, as well as to non-expressing HEK293 cells and a native PRLR expressing cell line (T47D).

The target in test [5] is T4, monkey PRLR on HEK293/mfPRLR cells (Macaca fascicularis, UniProt A0A2K5WXK1).
T4 construct: HA; expressed in transfected cells; host or cells: HEK293
T4 sequence (A0A2K5WXK1 25-619): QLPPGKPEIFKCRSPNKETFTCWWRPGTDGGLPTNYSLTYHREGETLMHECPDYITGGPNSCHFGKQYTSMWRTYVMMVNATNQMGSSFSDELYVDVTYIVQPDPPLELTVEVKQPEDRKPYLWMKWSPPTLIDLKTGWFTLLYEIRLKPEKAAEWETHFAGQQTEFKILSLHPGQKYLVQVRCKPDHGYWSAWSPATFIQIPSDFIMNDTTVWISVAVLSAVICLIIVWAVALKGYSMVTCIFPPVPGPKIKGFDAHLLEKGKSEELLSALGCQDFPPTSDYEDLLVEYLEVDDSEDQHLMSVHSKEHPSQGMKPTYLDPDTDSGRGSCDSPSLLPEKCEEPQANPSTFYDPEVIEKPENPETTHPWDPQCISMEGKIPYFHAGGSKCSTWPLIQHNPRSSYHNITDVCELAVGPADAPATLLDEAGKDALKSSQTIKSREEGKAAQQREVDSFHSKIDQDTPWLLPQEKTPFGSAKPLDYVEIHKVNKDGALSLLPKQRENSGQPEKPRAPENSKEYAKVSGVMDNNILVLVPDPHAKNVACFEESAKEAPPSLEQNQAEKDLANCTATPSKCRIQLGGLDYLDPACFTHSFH
The test is described as follows: FACS cell surface binding. The protocol: as §2, §3, §4

In test [6] the target is T5, mouse PRLR on HEK293/mPRLR cells (Mus musculus, UniProt Q08501).
T5 construct: HA; expressed in transfected cells; host or cells: HEK293
T5 sequence (Q08501 20-608): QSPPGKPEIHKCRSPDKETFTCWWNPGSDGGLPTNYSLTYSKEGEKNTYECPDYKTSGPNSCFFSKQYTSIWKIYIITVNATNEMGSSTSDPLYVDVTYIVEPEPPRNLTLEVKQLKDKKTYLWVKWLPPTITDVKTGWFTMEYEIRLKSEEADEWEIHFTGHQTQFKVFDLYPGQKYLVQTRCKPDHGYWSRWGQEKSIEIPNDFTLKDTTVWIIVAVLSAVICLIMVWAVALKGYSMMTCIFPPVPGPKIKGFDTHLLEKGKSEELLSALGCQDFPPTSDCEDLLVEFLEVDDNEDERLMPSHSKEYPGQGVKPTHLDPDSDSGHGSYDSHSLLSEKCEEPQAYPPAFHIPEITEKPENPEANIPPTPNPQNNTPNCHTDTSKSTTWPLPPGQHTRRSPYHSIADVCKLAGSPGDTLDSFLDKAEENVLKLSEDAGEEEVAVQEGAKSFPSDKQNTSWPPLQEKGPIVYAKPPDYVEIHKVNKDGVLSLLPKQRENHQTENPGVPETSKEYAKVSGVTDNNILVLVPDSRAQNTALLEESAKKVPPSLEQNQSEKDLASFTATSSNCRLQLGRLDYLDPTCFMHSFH
The test is described as follows: FACS cell surface binding. On the procedure:
as §2, §3, §4

Test [7] has as its target T6, native PRLR expressing T47D cells (Homo sapiens, UniProt P16471).
T6 construct: a native PRLR expressing cell line (T47D); endogenous in cells; host or cells: T47D
T6 sequence (P16471 25-622): T3 sequence (P16471 25-622)
The test is described as follows: FACS cell surface binding. The protocol:
as §3, §4

T1 sequence (P16471 with tags, fused parts or gaps): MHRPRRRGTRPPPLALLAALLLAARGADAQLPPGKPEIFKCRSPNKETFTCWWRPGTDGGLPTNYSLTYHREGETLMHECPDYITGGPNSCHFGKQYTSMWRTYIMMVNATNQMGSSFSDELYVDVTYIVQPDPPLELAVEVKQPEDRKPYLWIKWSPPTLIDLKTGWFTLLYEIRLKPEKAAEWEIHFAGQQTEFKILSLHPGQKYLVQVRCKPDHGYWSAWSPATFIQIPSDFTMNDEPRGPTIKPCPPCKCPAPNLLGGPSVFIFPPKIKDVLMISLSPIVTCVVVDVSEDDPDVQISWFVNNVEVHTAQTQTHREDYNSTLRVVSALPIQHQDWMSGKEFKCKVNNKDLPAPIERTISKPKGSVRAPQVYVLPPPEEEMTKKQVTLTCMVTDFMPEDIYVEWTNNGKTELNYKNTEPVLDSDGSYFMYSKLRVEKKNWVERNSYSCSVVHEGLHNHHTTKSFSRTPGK
T2 sequence (P16471 with tags, fused parts or gaps): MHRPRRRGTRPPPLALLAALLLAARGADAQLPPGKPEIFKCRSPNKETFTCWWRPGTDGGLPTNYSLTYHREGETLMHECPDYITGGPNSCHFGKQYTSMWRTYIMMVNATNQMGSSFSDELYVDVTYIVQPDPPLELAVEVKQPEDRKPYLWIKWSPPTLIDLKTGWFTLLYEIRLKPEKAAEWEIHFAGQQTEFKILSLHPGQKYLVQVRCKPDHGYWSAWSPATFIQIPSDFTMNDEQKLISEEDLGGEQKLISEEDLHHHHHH

B1: H1H6783P: fully human anti-PRLR antibody, human IgG1 Fc; HCVR/LCVR SEQ ID NOs 82/90 (antibody, V domains shown)
VH: QVQLQQSGPGLVKPSQTLSLTCAISGDSVSSNTFAWNWIRQSPSRGLEWLGRTYYRSKWYIDYAESVKSRITITPDTSKNQFSLQLNSVTPEDTALYYCAGGYTYAPRGAFDIWGQGTMVTVSS
VL: [sequence of about 100 residues omitted]TFGQGTKLEIK
For B1, the ka in test [1] (25° C.) was found to be 189000 M/s; in test [1] (37° C.), 273000 M/s; in test [2] (25° C.), 264000 M/s; in test [2] (37° C.), 491000 M/s; in test [3] (25° C.) it was 288000 M/s; in test [3] (37° C.), 411000 M/s. The kd in test [1] (25° C.) came out at 0.000341 s⁻¹; in test [1] (37° C.) it was 0.0013 s⁻¹; in test [2] (25° C.) it was 8.77e-05 s⁻¹; in test [2] (37° C.), 0.000138 s⁻¹; in test [3] (25° C.), 0.000413 s⁻¹; in test [3] (37° C.), 0.00161 s⁻¹. Moreover, the “FACS Cell Binding” value with HEK293 parental cells came out at 1 Fold Above Background; in test [4] it was 37 Fold Above Background; in test [5], 27 Fold Above Background; in test [6], 1 Fold Above Background; in test [7], 38 Fold Above Background.

B2: H1H6807P: fully human anti-PRLR antibody, human IgG1 Fc; HCVR/LCVR SEQ ID NOs 258/266 (antibody, V domains shown)
VH: QVQLVESGGGVVQPGRSLRLSCAASGFTFSDYNMHWVRQAPGKGLEWVAVIWYDGSNKHYADSVKGRFTISRDNSKNTLYLQMNSLRAEDTAVYYCARDGFTIFGMVLDYWGQGTLVTVSS
VL: [sequence of about 100 residues omitted]PFTFGPGTKVDIK
On to B2, for which the ka stood at 437000 M/s in test [1] (25° C.); 802000 M/s in test [1] (37° C.); 680000 M/s in test [2] (25° C.); 1.22e+06 M/s in test [2] (37° C.); 761000 M/s in test [3] (25° C.); 1.08e+06 M/s in test [3] (37° C.). The kd in test [1] (25° C.) is 0.000151 s⁻¹; in test [1] (37° C.), 0.000359 s⁻¹; in test [2] (25° C.), 5.46e-05 s⁻¹; in test [2] (37° C.), 0.00011 s⁻¹; in test [3] (25° C.) it was 0.000144 s⁻¹; in test [3] (37° C.), 0.000336 s⁻¹. The “FACS Cell Binding” value came to 2 Fold Above Background in the test on HEK293 parental cells; 32 Fold Above Background in test [4]; 27 Fold Above Background in test [5]; 2 Fold Above Background in test [6]; 34 Fold Above Background in test [7].
